A number of entries come with more than one value. The other results are left out here. There may be further records. Results that share an entry are repeated measurements in other runs, samples, wells, individuals or studies. Brackets with × count equal records among those shown. Marks such as [2022-09] give the month of the run.
Tested on: NCI-H211 complex spheroid viability
Assay: Anticancer human tumor NCI-H211 cell line growth inhibition [LSD1];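 also: luminescent viability read after seven days of drug exposure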;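 as to viability, T/C: 100% = DMSO vehicle control viability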
Conditions: for IC50: compound alone; for viability, T/C: stronger effect = lower value
Text: Multicellular complex tumor spheroid response to LSD1 Inhibitor Iadademstat in combination with a variety of drugs and investigational agents in selected tumor cell lines
The current study was undertaken to assess response to LSD1 inhibitors in combination with standard-of-care drugs and investigational agents in solid tumor complex spheroid models as well as in the K-562 leukemia. Complex spheroids include a stromal component modeled by human endothelial cells (HUVEC) and fibroblasts modeled by human mesenchymal stem cells (MSCs). The concentration ranges selected for each drug and investigational agent were based upon clinically achievable concentrations if the clinical Cmax of the agent was known.
Compounds. The drugs and investigational agents used in this study are listed on Table 1. All of the agents used, including staurosporine (NSC755774) and gemcitabine (NSC613327), were obtained from the Developmental Therapeutics Program, NCI. FDA-approved anticancer drugs are available from the NCI at http://dtp.nci.nih.gov/branches/dscb/oncology_drugset_explanation.html. Drugs and investigational agents were >95% pure by proton nuclear magnetic resonance (NMR) and liquid chromatography/mass spectrometry (LC/MS). Stock solutions were prepared at 400x in DMSO, stored at -70 degrees C, and diluted in fresh medium prior to their use. The final concentration of DMSO in cell culture wells never exceeded 0.25% (v/v). The FDA-approved anticancer drug set is available from the Developmental Therapeutics Program at https://dtp.cancer.gov/organization/dscb/obtaining/available_plates.htm. All drugs and investigational agents were tested over a range starting from a high concentration at or near the clinical Cmax and decreasing in half-log increments. If the clinical Cmax for an agent had not been determined, the highest concentration tested was 10 microM.
Cell Lines. The patient-derived cancer cell (PDC) lines: 292921-168-R-J2-PDC, K24384-001-R-PDC, and 521955-158-R2-J5-PDC pancreatic carcinomas, 556581-035-R-J1 ovarian carcinoma, 324938-238-R-J1-PDC, 855422-203-R-J1-PDC and 883617-216-R-J1-PDC urothelial bladder carcinomas, 743489-274-T-PDC renal cell carcinoma, 138582-R-J1 Merkel cell tumor, K60290-347-R-J1 and K57222-313-R-J1-PDC glioblastomas, 653999-131-R-J2-PDC, LG0703-F948-PDC, and 349418-098-R-PDC non-small cell lung carcinomas, 885512-296-R-J2-PDC, 171881-019-R-J1-PDC breast carcinomas and 186277-243-T-J2-PDC and 233499-124-R-J2-PDC colon carcinomas were obtained from the NCI Patient-Derived Models Repository (PDMR, https://pdmr.cancer.gov). The established cell lines NCI/ADR-RES (RRID:CVCL_14520 and OVCAR-5 (RRID:CVCL_1628) ovarian carcinomas, 786-O (RRID:CVCL_1051) and A498 (RRID:CVCL_A498) renal cell carcinoma, NCI-H211 (ATCC, cat. CRL-5824; RRID:CVCL_1529), NCI-H196 (ATCC, cat. CRL-5823, RRID:CVCL_1509), SW 1271 (ATCC, cat. CRL-2177, RRID:CVCL_1716) and NCI-H1876 (ATCC, cat. CRL-5902, RRID:CVCL_1503) small cell lung carcinomas, MDA-MB-231 (RRID:CVCL_0062) and MDA-MB-468 (RRID:CVCL_0419)breast carcinomas (10-12). Pooled donor human umbilical vein endothelial cells (HUVEC, Lonza, cat. CC-2519) and human mesenchymal stem cells (hMSC, Lonza, cat. PT-2501) were purchased from Lonza (Walkersville, MD).
Cell Culture. All cells were maintained in an incubator at 37 degrees C and 5% CO2 with 95% humidity. The PDC lines were cultured according to standard operating procedures established by the NCI PDMR (https://pdmr.cancer.gov). Briefly all PDCs were thawed and cultured in Matrigel-coated flasks prepared with a working solution of 1X Ham's F-12 nutrient mix, without supplementation (Invitrogen, Waltham, MA, cat. 11765054), 100 U/mL penicillin-streptomycin (Invitrogen, cat. 15140122), and 2.5% Matrigel (Corning Inc., Corning, NY, cat. 354248) for the first three passages. […]

| IC50 | Compound | IC50 (combination with iadademstat, run of 12/07/2021) | viability, T/C (compound alone 0.316 µM) | viability, T/C (compound alone 1 µM) | viability, T/C (compound alone 3.16 µM) | viability, T/C (compound alone 10 µM) | IC50 (combination with iadademstat, run of 11/29/2021) | viability, T/C (compound alone 0.1 µM) |
| --- | --- | --- | --- | --- | --- | --- | --- | --- |
|  | NC1CC1c1ccc(-c2cccc(O)c2)cc1 (stereo not given) | 2.62 µM, > 10 µM, 5.4 µM, 2.47 µM, 6.18 µM, 8.57 µM | 62.7, 66.2 (2×), 76.1, 71.3, 66.8, 69.5, 65.4, 76.5, 67.7, 56.4, 85.4, 87.8, 80.3, 78.4, 87.6, 75.8, 66.5, 67.3, 73, 83.1, 77.5, 70.4, 73.1, 82.1% | 62.6, 49.3, 65.3, 75.7 (2×), 60.2 (2×), 63.8, 63.5, 82.9, 66.2, 44, 95.9, 87.5, 55.1, 95.8, 63.1, 64.5, 73.7, 76.5, 71.5, 76.7, 70.6, 59.3, 73.5% | 46.1 (2×), 72.4, 51.2, 54.1, 62 (2×), 55.5, 69.8 (2×), 82.5, 63, 78.8, 47.3, 86.8, 63.5, 64.2, 68, 60.8 (2×), 87.3, 68.2, 67.3, 66.5, 60.7% | 40.4, 49, 79.7, 45.3, 55.8 (2×), 56.2, 73.2, 52.9, 62.2, 72.5, 76.4, 60.2, 50, 88.7, 54.8, 50.4, 59.7, 41, 54.4, 74.7, 57.4, 82, 65.9, 48.3% |  |  |
| 7.6 µM [2021-11] and < 31.6 nM [2021-12] | CC1(C)CCC(CN2CCN(c3ccc(C(=O)NS(=O)(=O)c4ccc(NCC5CCOCC5)c([N+](=O)[O-])c4)c(Oc4cnc5[nH]ccc5c4)c3)CC2)=C(c2ccc(Cl)cc2)C1 |  |  |  |  |  |  |  |
|  | NC1CCC(NC2CC2c2ccccc2)CC1 (stereo not given) |  |  | 66.1, 52.6, 65.4, 67, 65.9 (2×), 71.1, 57.4, 67.3, 68.3, 63.7, 64.1, 76.2, 63.8, 77.2, 60.5, 67.5 (2×), 61.8, 59.3, 75.2, 73.8, 96, 64.6, 58.3% | 60.5, 50.9, 50, 62.6, 60.7 (2×), 63.4, 75.1, 53.2, 54.6, 56.9, 54.3, 50.7, 66.9, 57.5, 51.1, 56.3, 58.4, 52.9, 59.1, 64.5, 73.3, 71, 71.7, 59% |  | 4.09 µM and 4.74, 3.91, 4.83, 4.32, 2.47, 3.2, 5.62, 5.69, 5.8, 4.49, 6.28, 3.67, 4.31, 3.28, 7.55, 4.37, 3.34, 5.15, 5.39, 5.96, 7.63, 6.26, 5.89 µM [2021-11] | 72, 70.5, 70.7, 67.7 (2×), 69.5, 67.9, 72.5, 78.4, 77.7, 61.9, 73.9, 61.4, 79.4, 68.2, 63, 60.7, 67.2, 66.2, 69.3, 86.9, 87.7, 75% |

Source: PubChem BioAssay AID1918940 (Molecular Pharmacology Branch, DTP, NCI, 2023)
